Results reported in PubChem BioAssay (NCATS).
Values joined by “and” are separate entries in the source; they are usually repeats but may differ in a detail not shown here. Identical values can stand only once. Inconclusive results, whose numbers are uncertain, are shown with a selection of clear calls. Potencies of inconclusive entries are doubtful fits and often do not repeat. Active and inactive are the calls of the source. Calls come from the whole dose curve; as a rule, active = well fitted activation curve with a large enough effect; inconclusive = small, poorly fitted or top-dose-only effect; inactive = no such curve, though single readings can be large or run the other way.

Biological target: Cellular tumor antigen p53 (Homo sapiens) (UniProt P04637)
UniProt P04637, sequence (P04637 whole entry, looked up): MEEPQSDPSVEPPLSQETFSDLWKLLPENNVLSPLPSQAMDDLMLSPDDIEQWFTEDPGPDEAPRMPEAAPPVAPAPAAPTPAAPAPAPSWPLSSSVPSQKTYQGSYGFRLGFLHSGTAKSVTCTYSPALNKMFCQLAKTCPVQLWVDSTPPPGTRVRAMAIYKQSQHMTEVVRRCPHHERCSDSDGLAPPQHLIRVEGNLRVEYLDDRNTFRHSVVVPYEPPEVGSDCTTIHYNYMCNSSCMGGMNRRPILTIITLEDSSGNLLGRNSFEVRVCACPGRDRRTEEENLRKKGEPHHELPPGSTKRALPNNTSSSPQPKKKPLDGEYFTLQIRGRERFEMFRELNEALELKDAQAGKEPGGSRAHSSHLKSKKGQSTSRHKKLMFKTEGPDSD
Test: Primary qHTS for small molecule compounds that upregulate eGFP-tagged delta133p53alpha (in N-terminal) cells. (AID 2060322);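 note: cells pre-induced with doxycycline then dosed without doxycycline; nearly all actives have a fitted effect of over 75% in size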;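 for activation: series mostly up to about 56 µM; 0% = DMSO vehicle and 100% = reference activator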
Settings: NCI-H358 eGFP-delta133p53alpha fluorescence, 24 h; activation: hits give high values
Method in brief: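 NCI-H358 cells pre-induced 24 h with 10 ng/ml doxycycline for eGFP-delta133p53alpha, plated dox-free and exposed 24 h at 37C to titrated compounds. Fixed, Hoechst-stained; gated GFP peak intensity by laser scanning cytometry, normalized to DMSO (0%) and 57.5 uM 5-azacytidine (100%).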
Potency is the fitted concentration of half-maximal effect; tags give direction and shape of the fitted curve.

Structure (SMILES)	Potency	activation
O=C(c1cn(Cc2cncn2Cc2ccc(Br)cc2)cc1-c1cccc2ccccc12)N1CCOCC1	active: 26.9 µM	–
CC1CC2(O)OC(=O)C3=C2C(CCC3)[C@@]12C[C@@H](c1ccoc1)OC2=O (stereo partly specified)	–	inactive: -12.2%
C=C1CC2C3(C)C(O)CC(=O)C(C)(C)C3C(O)C(OC(C)=O)C2(C)C2C(=O)OC(C)(C(=O)OC)C(=O)C12C (stereo unspecified)	–	inactive: 27.5%
COC(=O)C1=CO[C@@H](O[C@@H]2O[C@H](CO)[C@@H](O)[C@H](O)[C@H]2O)[C@H]2[C@@H]1C=C[C@]21C=C([C@H](C)OC(=O)/C=C/c2ccc(O)cc2)C(=O)O1	active: 2.51 µM	–
CCCCCCCCCCCCCCCc1cccc(O)c1C(=O)O	inconclusive: 43.2 µM [activator, single point]	–
CC(=O)/C=C/C=C1/C2CCC(C2)C1(C)C (stereo unspecified)	inconclusive: 1.74 µM [activator, full curve, poor fit]	–
C[C@H]1CC[C@@]2(OC1)O[C@H]1CC3[C@@H]4CC[C@@H]5C[C@@H](O[C@@H]6O[C@H](CO)[C@@H](O[C@@H]7O[C@H](CO[C@@H]8OC[C@@H](O)[C@H](O)[C@H]8O)[C@@H](O[C@@H]8O[C@H](CO)[C@H](O)[C@H](O)[C@H]8O)[C@H](O)[C@H]7O)[C@H](O)[C@H]6O)CC[C@]5(C)C4CC[C@]3(C)[C@H]1[C@@H]2C (stereo partly specified)	–	inconclusive: 34.8% [activator]
CCCCOCCOC(=O)c1cccnc1	–	inactive: -10.7%
CN1CC[C@H](c2c(O)cc(O)c3c(=O)cc(-c4ccccc4Cl)oc23)[C@H](O)C1	active: 0.11 µM	–
O=C(NC1CCN(CCCCC2(C(=O)NCC(F)(F)F)c3ccccc3-c3ccccc32)CC1)c1ccccc1-c1ccc(C(F)(F)F)cc1	inconclusive: 4.26 µM [activator, partial curve, poor fit]	–
Cc1cccc(-c2[nH]c(Cc3cccc(C(N)=O)c3)nc2-c2ccc3nccnc3c2)n1	inconclusive: 8.49 µM [activator, single point]	–
CC(C)/C=C1\NC(=O)C(C(C)C)n2c1nc1c(c2=O)C=CC=CO1 (stereo unspecified)	–	inactive: -7.63%
CC[C@H](C)/C=C(C)/C=C/C1=CC2=C(Cl)C(=O)[C@](C)(O)[C@H](OC(C)=O)[C@H]2CO1	active: 14.8 µM	–
Cc1[nH]c(C=C2C(=O)Nc3ccc(S(=O)(=O)Cc4c(Cl)cccc4Cl)cc32)c(C)c1C(=O)N1CCC[C@H]1CN1CCCC1	inconclusive: 0.863 µM [activator, full curve, poor fit]	–
COc1ccc(S(=O)(=O)ON=C2C=C(C)C(=O)C(C)=C2)cc1	active: 34.3 µM	–
Nc1nc2c(nc(Br)n2C2OC3COP(=O)(O)O[C@@H]3C2O)c(=O)[nH]1 (stereo partly specified)	–	inactive: 29.4%
Cn1ccc(NC(=O)c2cc(Oc3ccc(C(=O)N4CCC4)c(F)c3)c3c(c2)OC(C)(C)C3)n1	–	inactive: -12.3%
NCC(O)C1CCCCCCC1 (stereo unspecified)	inconclusive: 0.0135 µM [activator, full curve, poor fit]	–
CN[C@@H]1C[C@H]2O[C@@](C)([C@H]1OC)n1c3ccccc3c3c4c(c5c6ccccc6n2c5c31)C(=O)N[C@H]4O	inconclusive: 24.3 µM [activator, partial curve, poor fit]	–
COc1ccc2c(c1)C=C1Cn3c-2c(C2CCCCC2)c2ccc(cc23)C(=O)NS(=O)(=O)N(C)CCOCCN(C)C1=O	inconclusive: 37.9 µM [activator, single point]	–
COc1ccc(C(=O)O[C@H]2C=COC=C3C=C4C(=O)N(C)C(=S)C(=O)N4[C@@H]32)cc1Oc1cc(C=O)ccc1O	inconclusive: 18.5 µM [activator, single point]	–
CCCNc1ccc2ncc(-c3ccc4[nH]ncc4c3)n2n1	active: 2.39 µM	–
C=CC(=O)Nc1cccc(Oc2nc(Nc3ccc(N4CCN(C)CC4)cc3)ncc2Cl)c1	active: 9.68 µM and active: 13.5 µM	–
Nc1nc2ccccc2n1Cc1ccc(F)cc1	inconclusive: 11 µM [activator, partial curve, poor fit]	–
CCCc1ccc(OCC(=O)N2CCN(C(=O)COc3ccc(CCC)cc3OC)CC2)c(OC)c1	inconclusive: 3.89 µM [activator, partial curve, poor fit]	–
CC1=CC(=O)CC2C1(O)CCC(C)C21CC(c2ccoc2)OC1=O (stereo unspecified)	–	inactive: 6.87%
